Molecules are shown by their SMILES.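 Cultured in 96-well plates, cells were exposed to test compound for 48 hours across five concentrations. GI50 is the concentration that inhibits growth by half. TGI denotes the concentration required for complete inhibition of growth.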

This assay concerns NCI-H322M lung. The assay can be described thus: growth of human tumour cells (NCI), 48 h.
`COc1cccc(C2c3cc4c(cc3OC(O)(CO)C2C(=O)O)OCO4)c1` (stereo unspecified) (tested in a mixture with another compound): the TGI is above 100 µM.

Take `C=C1CC[C@@H]2[C@](C)(COC(C)=O)[C@H](OC(C)=O)CC[C@@]2(C)[C@@H]1CC(Nc1ccc(S(=O)(=O)Nc2nccc(C)n2)cc1)C1=CCOC1=O` (stereo partly specified): the GI50 is 11.3 µM and the TGI is 23.9 µM.

Consider `C[C@@H]1COCCN1c1cc(C2(S(C)(=N)=O)CC2)nc(-c2ccnc3[nH]ccc23)n1` (stereo partly specified), for which the GI50 was 1.85 µM and the TGI amounted to 15.7 µM.

Compound `COc1ccc(CCNC(=O)Cc2cc(OC)c(OC)cc2CO)cc1OC` displayed a TGI above 100 µM.

For `N#Cc1ccc(OCc2nc3cc(C(F)(F)F)ccc3nc2-c2ccccc2)cc1`, the TGI was above 100 µM.

In turn, `COc1ccc(N=C(Nc2ccc(OC)cc2)C(=Nc2ccc(OC)cc2)Nc2ccc(OC)cc2)cc1` displayed a TGI above 100 µM.

Take `Fc1ccc2[nH]c3c(NCCCN4CCOCC4)ncnc3c2c1`: the GI50 was 77.9 µM and the TGI was above 100 µM.

`CCO/N=[N+](\[O-])N(CC)CC` displayed a TGI above 100 µM.

`c1cc2c(c(-c3c4ccccc4nc4ccccc34)c1)CC1(CC2)OCCO1` showed a TGI above 100 µM.

Turning to `CC(=O)O[C@@H]1CC2C(C)(C)CCCC2(C)C2=C1C(=O)C(C(C)C)=CC2=O` (stereo partly specified), the GI50 was 0.529 µM and the TGI is 2.21 µM.

`CC(=O)OCC1OC(n2ccc(=O)[nH]c2=O)C(OC(C)=O)C1OC(C)=O` (stereo unspecified): the GI50 was above 100 µM and the TGI was above 100 µM.

`CC1OC2CC(=O)OC2C2=C1C(=O)c1c(O)c3c(c(O)c1C2=O)C1CC(O)C3(O)C(C)O1` (stereo unspecified): the GI50 is 0.329 µM and the TGI was 2.46 µM.

Take `COc1ccccc1N1CCN(Cn2c(=O)oc3cccnc32)CC1`: the TGI is above 100 µM.

As for `O=C1C2=C(c3ccccc31)C(c1ccccc1)NC(=S)N2` (stereo unspecified), the TGI was above 100 µM.

`Cc1nnc2n1-c1ccccc1C(=S)N1CSCC21` (stereo unspecified) had a TGI above 100 µM.

For the compound `O=c1[nH]nc(Cc2ccccc2)n1Nc1ccccc1`, the TGI was above 100 µM.

Compound `CCOC(=O)/C=C(\C)c1ccc(OC)cc1` yielded a TGI above 100 µM.

Take `Cc1cccc(NC(=S)N=Nc2c(O)[nH]c3ccccc23)c1`: the TGI is above 100 µM.

With `C=CC[C@H]1[C@H](O[Si](C)(C)C(C)(C)C)C=CC(=O)[C@@H]1CC(=O)N(Cc1ccccc1)Cc1ccccc1`, the TGI is above 100 µM.

Take `O[C@@H]1C[C@@H]2N[C@@](O)(C[C@@H]2O)[C@H]1O`: the TGI was above 100 µM.

Take `COc1cc[nH]c1/C=C1\C(=O)Nc2ccc(F)c(I)c21`: the GI50 is above 25 µM and the TGI is above 25 µM.

`COC(=O)C1C2C=CC(C2)N1[C@@H](C)c1ccccc1` (stereo partly specified) displayed a TGI above 100 µM.

Compound `CC[C@@H](/C=C\CCC1(C[C@H](O)CCC=C(C)C)OCCO1)O[Si](C(C)C)(C(C)C)C(C)C` gave a TGI above 100 µM.

`CCc1cc(O)c(Cl)c(C)c1Cl` registered a TGI of 37.5 µM.

`COc1cc(CNc2ccc(C(C)C)cc2)cc(OC)c1OC` yielded a TGI above 100 µM.

`C=C1C(=O)OC2C1CC(O)/C(C)=C\CCC1(C)OC21` (stereo unspecified) had a TGI above 100 µM.

For the compound `CC(=O)Oc1ccc(O)c(O)c1C/C=C(\C)CC/C=C(\C)CC/C=C(\C)CCC=C(C)C`, the TGI worked out at 11.2 µM.

For `COc1cc(C2c3cc4c(cc3[C@@H](Nc3cccc(C(C)=O)c3)C3COC(=O)[C@H]23)OCO4)cc(OC)c1O` (stereo partly specified), the TGI was 57.4 µM.

Compound `CCCCCCCCCCCCCCCC(=O)OCC1OC(n2c(O)c(N=NC(N)=S)c3ccc([N+](=O)[O-])cc32)C(OC(C)=O)C1OC(C)=O` (stereo unspecified) displayed a TGI above 100 µM.

Turning to `O=[N+]([O-])c1ccc2nc(/C=C(\O)c3ccc(F)cc3)c(/C=C(\O)c3ccc(F)cc3)nc2c1`, the TGI is above 100 µM.

In turn, `CC1C(=O)C(C)C(c2ccccc2)N(N=O)C1c1ccccc1` (stereo unspecified) showed a TGI above 816 µM.

In turn, `CC(=O)OC1c2ccccc2CCCCCCC12OCCO2` (stereo unspecified) gave a TGI above 100 µM.

Compound `C#C[C@]1(O)CC[C@H]2[C@@H]3CCc4cc(OC(=O)c5cccc6cc7ccccc7nc56)ccc4[C@H]3CC[C@@]21C` registered a TGI above 100 µM.

Take `CC12Cc3cc4c(cc3C1(c1ccc([N+](=O)[O-])cc1)OCCO2)OCO4` (stereo unspecified): the TGI was above 100 µM.

`Cc1cc2c3ccccc3n(C)c2c2c1C(=O)C=CC2=O` gave a TGI of 53.8 µM.

For the compound `Cc1c(NC(=S)Nc2ccc(Cl)cc2)c(=O)n(-c2ccccc2)n1C`, the TGI was above 100 µM.

Consider `C=C(C)C(=O)O[C@H]1[C@H]2[C@H](OC(=O)[C@H]2C)[C@H](O)[C@@H](C)[C@@H]2C=CC(=O)[C@]21C`, for which the TGI came to 8.94 µM.

As for `COc1cc(Nc2nc(N[C@H]3CCCC[C@@H]3N)nc3cc[nH]c(=O)c23)cc(OC)c1`, the GI50 is 0.771 µM and the TGI stood at 13.7 µM.

As for `CC[C@H](CC#N)OC(=O)N[C@@H](C)c1cccc(NC(=O)Nc2ccc(-c3cnco3)c(OC)c2)c1`, the GI50 is 0.098 µM and the TGI amounted to 46.6 µM.

For the compound `C=C1C(=O)O[C@H]2[C@H]1CC/C(COC(=O)N1CCC[C@H]1C(=O)Nc1ccc(OC)c(C(N)=O)c1O)=C\CC[C@@]1(C)O[C@@H]21`, the GI50 is 12.7 µM and the TGI was determined as 26.8 µM.

The compound `COc1cc(COC(=O)N2CCC2C(=O)O)c([N+](=O)[O-])cc1OC` (stereo unspecified) came in with a TGI above 100 µM.

With `COc1ccc(-c2cncn2-c2ccc(OC)cc2)cc1`, the GI50 is 20.5 µM and the TGI is 66.3 µM.

`CN(C)Cc1cc(N=Nc2ccccc2)cc(CN(C)C)c1O` showed a TGI above 100 µM.

The compound `O=c1cc(-c2ccccc2)c2cc3c(=O)ccoc3cc2o1` displayed a TGI above 100 µM.

Compound `Cc1ccc(S(N)(=O)=O)cc1` had a TGI above 1000 µM.

Turning to `Cc1ccc(C(O)c2cnc(C)n2Cc2ccccc2)cc1` (stereo unspecified), the TGI is above 100 µM.

With `Cc1cccc(NC(=S)Nc2ccccc2Cl)n1`, the TGI was above 100 µM.

Regarding `Fc1cccc(COc2ccc(Nc3ncnc4cc(-c5ccc[nH]5)sc34)cc2Cl)c1`, the GI50 is 0.809 µM and the TGI is above 25 µM.

`CC[n+]1c(/C=C/c2ccc(N(CCCl)CCCl)cc2)ccc2cc(NC(=O)/C=C/c3ccccc3)ccc21` had a TGI of 4.29 µM.

Consider `COc1ccc2nc3cc(Cl)ccc3c(NCCCN(CCCl)CCCl)c2c1`, for which the TGI was determined as 1.99 µM.

Compound `CC(C)CC1=[N+]=C(NC#N)N=C(CCC(=O)Nc2ccccc2[N+](=O)[O-])C1` displayed a TGI above 100 µM.

With `Cn1c(-c2ccc(/C=N\N3CCN(/N=C/c4ccc(-c5c[n+]6ccccc6n5C)cc4)CC3)cc2)c[n+]2ccccc12`, the TGI was above 100 µM.

`COCc1cc2c(cc1/C=C/[N+](=O)[O-])OCO2` had a TGI of 29.3 µM.

As to `CNC1=CC(=O)C2=C(C1=O)[C@H]1CC[C@]3(C)C(=O)CC[C@H]3[C@@H]1CC2`, the TGI was determined as 28.7 µM.

With `CCOc1cc(NC(C)=O)ccc1C(=O)NN1C(=O)/C(=C/c2cc(OC)c(OC)c(OC)c2)N=C1c1ccccc1`, the TGI is above 100 µM.

Consider `COc1ccc(NC(=O)/C(CC2=Nc3ccc([N+](=O)[O-])cc3NC2O)=N\NC(=O)C[N+](C)(C)C)c(OC)c1` (stereo unspecified), for which the TGI is above 100 µM.

Compound `c1ccc(-c2nn(-c3ccccc3)[n+](-c3ccccc3)n2)cc1` gave a TGI above 74.7 µM.

As for `CC(C)C1CC(O)O[C@@H]([C@@H](C)[C@H]2CC(=O)[C@@H]3[C@@H]4[C@@H](O)[C@H](O)[C@H]5[C@@H](O)[C@H](O)CC[C@]5(C)[C@H]4CC[C@]23C)C1` (stereo partly specified), the TGI is above 100 µM.

As for `CC12CCC(=O)C=C1CCC1C2C(O)CC2(C)C(c3csc(N)n3)CCC12` (stereo unspecified), the TGI is above 100 µM.

For the origin of these results see PubChem BioAssay (NCI).
